# Test results reported in PubChem BioAssay AID1240 (Sanford-Burnham Center for Chemical Genomics, 2008).
# Among all 50,000 compounds or so, about 800 (1.6%) showed an effect of 50% or more. Some of the results follow.
# Target: Bcl-2-like protein 10 (Homo sapiens) (UniProt Q9HD36)
# Assay: TR3 peptide-Bcl-B binding displacers, biochemical primary FP assay, phenotype converters (AID 1240);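 further: 0% = Bcl-B with tracer peptide and DMSO and 100% = tracer peptide lacking Bcl-B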
# Details: GST-Bcl-B / FITC-TR3 peptide fluorescence polarization; stronger effect = higher value; compound at 3.75 mg/L
# Sequence of UniProt Q9HD36 (Q9HD36 whole entry, looked up): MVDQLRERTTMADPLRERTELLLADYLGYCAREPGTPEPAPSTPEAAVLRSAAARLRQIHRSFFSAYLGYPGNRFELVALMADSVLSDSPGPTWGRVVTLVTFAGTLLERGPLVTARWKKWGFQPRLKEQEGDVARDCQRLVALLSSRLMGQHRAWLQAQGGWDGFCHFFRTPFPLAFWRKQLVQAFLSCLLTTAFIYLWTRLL
row,Compound,displacement [%]
1,Cc1ccc(NC(=O)COc2ccc(Br)cc2)c([N+](=O)[O-])c1,-4.7
2,O=C(O)CCCCCC1CCNC(=O)N1 (stereo not given),-3.9
3,O=[N+]([O-])c1cccc(C=NCCCN2CCOCC2)c1,-7.3
4,CC1CCN(CCCCOc2c(Cl)cccc2Cl)CC1,14.8
5,C=CCOc1nc(-c2ccc(Br)cc2)nc2ccccc12,16.4
6,O=C1C(c2ccccc2)=NOC12CCCC2,0.3
7,Cc1ccc(C)c(NC(=O)CN(c2ccc(Br)cc2)S(C)(=O)=O)c1,3.9
8,Cc1cc(OCC(=O)Nc2ccccn2)cc(C)c1Cl,-7.2
9,COc1ccc([N+](=O)[O-])cc1/C=C1/C(=O)NC(=O)N(c2ccc(C(C)C)cc2)C1=O,-10.4
10,CC1=NN(c2cccc(C(=O)O)c2)C(=O)/C1=C\c1ccc(F)cc1,-2.9
11,O=C(c1ccc(S(=O)(=O)N2CCCCC2)cc1)N1CCN(c2ccccc2)CC1,-2.5
12,CCOC(=O)C1=C(C)N=c2s/c(=C/c3ccccn3)c(=O)n2C1c1ccccc1Cl (stereo not given),-0.4
13,COc1ccccc1CC(=O)Nc1ccc(F)cc1,-2.9
14,COc1cc(OC)cc(C(=O)Nc2cc3nn(-c4ccc(C)cc4)nc3cc2C)c1,-3.8
15,Brc1ccc2c(c1)c(-c1ccccc1)nc1nnnn12,7.3
16,O=Cc1cc(Br)ccc1OCc1c(F)cccc1Cl,0.3
17,COc1ccc(/C=N/c2ncn[nH]2)cc1OC,-6.4
18,CCCOc1ccc(-c2cc(OCC)c3c(C)oc(C)c3c(=O)c2)cc1,22.4
19,COc1nc(Nc2ccccc2)nc(NC(C)(C)C)n1,4.3
20,CC(C)(C)c1cc(C(F)(F)F)nc(NC(=O)NS(=O)(=O)c2ccccc2Cl)n1,17.9
21,CCOc1cccc(C2Nc3ccccc3NC3=C2C(=O)CC(c2ccc(OC)cc2)C3)c1 (stereo not given),-6.8
22,CN1CCN(C(=O)C(=O)Nc2ccc3c(c2)OCO3)CC1,0.6
23,O=C(/C=C/c1cc(Br)cs1)Nc1ccccc1[N+](=O)[O-],12.4
24,O=C(COc1ccccc1)Nc1ccc(NC(=O)c2ccco2)cc1,-9.4

row,Compound,displacement [%]
1,Brc1ccc(Nc2ccc3ccccc3n2)cc1,1.2
2,Cc1ccc(CSCCNC(=O)CN(c2cccc([N+](=O)[O-])c2)S(=O)(=O)c2ccccc2)cc1,-4.4
3,COC(=O)c1ccccc1-c1ccc(/C=C2/SC(=S)NC2=O)o1,15.2
4,COC(=S)N/C(=N/S(=O)(=O)c1ccc(Br)cc1)c1ccccc1,7.2
5,OC(CN1CCCCC1)c1ccc2c(c1)OCCCO2 (stereo not given),-6
6,c1ccc(N2N=C(c3cccs3)CC2c2cccs2)cc1 (stereo not given),-9.7
7,Cc1ccccc1NC(=O)COc1ccccc1,12.4
8,CCOc1ccc(Cc2c(O)n(-c3ccccc3)c(=S)[nH]c2=O)cc1,-13.7
9,O=C(Nc1cccc(Cl)c1)[C@@H]1C2C=CC(C2)[C@@H]1C(=O)O (stereo not given in full),-13.5
10,COc1cc(CNc2ccc(Br)c(C)c2)cc(OC)c1,-6
11,COc1cc(CN2CCN(Cc3ccccc3Br)CC2)cc(OC)c1,-12.8
12,N#CCCN1CCN(C(CNS(=O)(=O)c2ccc(Cl)cc2)c2ccccc2)CC1 (stereo not given),10
13,Cc1ccc(N(C)C)cc1NC(=O)CCC(=O)O,7.9
14,O=C(NC(C(=O)NC1CCCCC1)C12CC3CC(CC(C3)C1)C2)c1ccccc1 (stereo not given),-0.6
15,COc1ccc(NC(=O)c2cccc(F)c2)cc1Cl,-17.7
16,CCOC(=O)c1ccc(NC(=O)c2cc(-c3cccs3)nc3ccccc23)cc1,4.7
17,Cc1ccc2cccc(SCC(=O)Nc3ccc(Br)cc3)c2n1,-2
18,O=C(Nc1nc2sc3c(c2c(=O)s1)CCCC3)c1ccc([N+](=O)[O-])cc1,-13.5
19,O=C(NC(=S)Nc1ccccc1)c1cccnc1,-7.9
20,CCCC1CCC(c2ccc(OCC)cc2)=CC1=O (stereo not given),6.3
21,O=C(O)c1cc(-c2cccs2)nc2ccccc12,7.7
22,CCOC(=O)C1=C(N)OC2=C(C(=O)CC(C)(C)C2)C1c1ccc(Cl)c(Cl)c1 (stereo not given),0.2
23,CCOc1ccc(N(CC(=O)Nc2c(C)cccc2C)S(=O)(=O)c2ccccc2)cc1,-12.3
24,Cn1c(=O)c([N+](=O)[O-])c(NCCc2ccccc2)c2ccccc21,-8.2

row,Compound,displacement [%]
1,Cc1ccc(S(=O)(=O)N2CCN(C(=O)c3cccc(F)c3)CC2)cc1,-1.9
2,O=C(COc1ccccc1[N+](=O)[O-])Nc1ccc2oc(-c3cc(Br)ccc3Cl)nc2c1,16.2
3,CC(C)NC(=O)CN(Cc1ccccc1)S(=O)(=O)c1ccccc1,3.9
4,Cc1cc(C)cc(N2C(=O)C3C(c4ccccc4Cl)OC4(C(=O)c5ccccc5C4=O)C3C2=O)c1 (stereo not given),1.7
5,Cc1cccc(/C=N/N2CCN(Cc3ccccc3Cl)CC2)c1,-1
6,COc1ccc(C=C2C(=O)N(c3ccccc3)C(=O)N(c3ccccc3)C2=O)cc1C(=O)O,4.5
7,Nc1c(C(=O)c2ccc(Br)cc2)sc2nc(C(F)(F)F)c(C(=O)c3cccs3)cc12,51.1
8,CCOc1ccccc1N(CC(=O)Nc1ccccc1Br)S(=O)(=O)c1ccccc1,-3.5
9,N/C(Cc1ccc([N+](=O)[O-])cc1)=N\OC(=O)c1ccc2ccccc2c1,9
10,Brc1ccc(C2=CSC3=NCCN23)cc1,0
11,O=C(Nc1cccc([N+](=O)[O-])c1)c1ccc2ccccc2n1,35.2
12,O=C1N/C(=N/N=C\c2ccc(-c3ccc(Cl)cc3)o2)SC1Cc1ccccc1 (stereo not given),17
13,O=C1NC(=O)C(=Cc2ccc(OC(=O)c3ccc(Cl)c(Cl)c3)cc2)C(=O)N1,-10
14,Cc1ccc(C2([N+](=O)[O-])C(=O)c3ccccc3C2=O)cc1,-7.9
15,Cc1ccc(S(=O)(=O)NC(=O)Nc2ccccc2I)cc1,17.8
16,O=C1/C(=C/c2c(Cl)cccc2Cl)SC(=S)N1CCc1ccccc1,3.8
17,COc1ccc(C(=O)Nc2ccc(Br)c(C)c2)c(OC)c1,14.5
18,C=CCn1c(CCCN2C(=O)c3cccc4cccc(c34)C2=O)nnc1SCC(=O)O,-1.7
19,COc1ccc(OC)c(NC(=O)c2sc3ccccc3c2Cl)c1,17.2
20,COc1ccc2c(c1C)CCC/C2=N\OC(=O)c1ccc([N+](=O)[O-])cc1,-6.4
21,CCOc1ccc(N(CC(=O)Nc2cccc(C(C)=O)c2)S(=O)(=O)c2ccc(Br)cc2)cc1,-2.3
22,CCc1ccccc1N(CC(=O)Nc1ccc(I)cc1)S(C)(=O)=O,-9.2
